{"source": "patent US20140086927A1", "about": "(priority 2012, published 2014)", "molecules": {"B1": {"name": "F005-126: human IgG antibody broadly neutralizing H3N2 viruses; heavy chain SEQ ID NO: 2, light chain SEQ ID NO: 13 (antibody)", "heavy": "QVQLVQSGAEVKKPGASVTVSCQVSGYTLTSYGLSWVRQAPGQGLEWVGWINTYDGQTKYVKKFQGRVTMTTHTGTNTAYMEMKSLRSDDTAVYYCARVEGVRGVMGFHYYPMDVWGQGTMVTVSS[not shown - human IgG1 constant region with changes]", "light": "QSVLTQPPSVSGAPGQRVTISCTGSSSNIGAGYAVHWYQQLPGTAPKLLISGNSNRPSGVPDRFSGSKSGTSASLAITGLQAEDEADYYCQSYDSSLSGSVFGGGTKLTVLGQPKAAPSVTLFPPSSEELQANKATLVCLISDFYPGAVTVAWKADSSPVKAGVETTTPSKQSNNKYAASSYLSLTPEQWKSHRSYSCQVHEGSTVEKTVAPTECSARQ"}}, "key": {"[1]": {"system": "12 H3N2 strain viruses", "assay_type": "cell-based, Influenza A virus"}, "[2]": {"system": "HA of H1N1 (NC99)", "assay_type": "binding, Influenza A virus H1N1 (NC99)"}, "[3]": {"system": "HA of H3N2", "assay_type": "binding, Influenza A virus H3N2 (Aic68, Fuk85)"}}}
{"molecule": "B1", "values": [{"measurement": "neutralization of H3N2 strains (in words)", "setting": "[1]", "value": "able to neutralize all 12 H3 strains"}, {"measurement": "binding to HA of H1N1 (NC99) artificially expressed on cells", "setting": "[2]", "value": "bound only to the cells expressing HA of H3N2"}, {"measurement": "binding to HA and HA1 domain of H3N2 expressed on cells", "setting": "[3]", "value": "bound equally to HA and HA1"}, {"measurement": "binding to HA of H3N2 (Aic68) artificially expressed on cells", "setting": "[3]", "value": "bound only to the cells expressing HA of H3N2"}]}
